# Reference: the supplement of paper PMC12458215
# ± gives the uncertainty stated by the source.
# Test system: HEK293T
# Assay: plasma membrane surface immunostaining intensity (anti-HA, deep receptor scanning) (arbitrary fluorescence units); higher = higher plasma membrane expression
# Settings: GPCR class: A
row,Sequence,plasma membrane surface immunostaining intensity
1,MNRHHLQDHFLEIDKKNCCVFRDDFIAKVLPPVLGLEFIFGLLGNGLALWIFCFHLKSWKSSRIFLFNLAVADFLLIICLPFVMDYYVRRSDWKFGDIPCRLVLFMFAMNRQGSIIFLTVVAVDRYFRVVHPHHALNKISNWTAAIISCLLWGITVGLTVHLLKKKLLIQNGTANVCISFSICHTFRWHEAMFLLEFFLPLGIILFCSARIIWSLRQRQMDRHAKIKRAITFIMVVAIVFVICFLPSVVVRIHIFWLLHTSGTQNCEVYRSVDLAFFITLSFTYMNSMLDPVVYYFSSPSFPNFFSTLINRCLQRKITGEPDNNRSTSVELTGDPNKTRGAPEALIANSGEPWSPSYLGPTSNNHSKKGHCHQEPASLEKQLGCCIE [HCAR3],6280 ± 200
2,MNSSFHLHFLDLNLNATEGNLSGPNVKNKSSPCEDMGIAVEVFLTLGVISLLENILVIGAIVKNKNLHSPMYFFVCSLAVADMLVSMSSAWETITIYLLNNKHLVIADAFVRHIDNVFDSMICISVVASMCSLLAIAVDRYVTIFYALRYHHIMTARRSGAIIAGIWAFCTGCGIVFILYSESTYVILCLISMFFAMLFLLVSLYIHMFLLARTHVKRIAALPGASSARQRTSMQGAVTVTMLLGVFTVCWAPFFLHLTLMLSCPQNLYCSRFMSHFNMYLILIMCNSVMDPLIYAFRSQEMRKTFKEIICCRGFRIACSFPRRD [MC5R],5040 ± 330
3,MNSTCIEEQHDLDHYLFPIVYIFVIIVSIPANIGSLCVSFLQAKKESELGIYLFSLSLSDLLYALTLPLWIDYTWNKDNWTFSPALCKGSAFLMYMNFYSSTAFLTCIAVDRYLAVVYPLKFFFLRTRRFALMVSLSIWILETIFNAVMLWEDETVVEYCDAEKSNFTLCYDKYPLEKWQINLNLFRTCTGYAIPLVTILICNRKVYQAVRHNKATENKEKKRIIKLLVSITVTFVLCFTPFHVMLLIRCILEHAVNFEDHSNSGKRTYTMYRITVALTSLNCVADPILYCFVTETGRYDMWNILKFCTGRCNTSQRQRKRILSVSTKDTMELEVLE [GPR65],4390 ± 240
4,MNSTGHLQDAPNATSLHVPHSQEGNSTSLQEGLQDLIHTATLVTCTFLLAVIFCLGSYGNFIVFLSFFDPAFRKFRTNFDFMILNLSFCDLFICGVTAPMFTFVLFFSSASSIPDAFCFTFHLTSSGFIIMSLKTVAVIALHRLRMVLGKQPNRTASFPCTVLLTLLLWATSFTLATLATLKTSKSHLCLPMSSLIAGKGKAILSLYVVDFTFCVAVVSVSYIMIAQTLRKNAQVRKCPPVITVDASRPQPFMGVPVQGGGDPIQCAMPALYRNQNYNKLQHVQTRGYTKSPNQLVTPAASRLQLVSAINLSTAKDSKAVVTCVIIVLSVLVCCLPLGISLVQVVLSSNGSFILYQFELFGFTLIFFKSGLNPFIYSRNSAGLRRKVLWCLQYIGLGFFCCKQKTRLRAMGKGNLEVNRNKSSHHETNSAYMLSPKPQKKFVDQACGPSHSKESMVSPKISAGHQHCGQSSSTPINTRIEPYYSIYNSSPSQEESSPCNLQPVNSFGFANSYIAMHYHTTNDLVQEYDSTSAKQIPVPSV [GPR75],6160 ± 120
5,MNSWDAGLAGLLVGTMGVSLLSNALVLLCLLHSADIRRQAPALFTLNLTCGNLLCTVVNMPLTLAGVVAQRQPAGDRLCRLAAFLDTFLAANSMLSMAALSIDRWVAVVFPLSYRAKMRLRDAALMVAYTWLHALTFPAAALALSWLGFHQLYASCTLCSRRPDERLRFAVFTGAFHALSFLLSFVVLCCTYLKVLKVARFHCKRIDVITMQTLVLLVDLHPSVRERCLEEQKRRRQRATKKISTFIGTFLVCFAPYVITRLVELFSTVPIGSHWGVLSKCLAYSKAASDPFVYSLLRHQYRKSCKEILNRLLHRRSIHSSGLTGDSHSQNILPVSE [GPR26],1100 ± 180
6,MNTTSSAAPPSLGVEFISLLAIILLSVALAVGLPGNSFVVWSILKRMQKRSVTALMVLNLALADLAVLLTAPFFLHFLAQGTWSFGLAGCRLCHYVCGVSMYASVLLITAMSLDRSLAVARPFVSQKLRTKAMARRVLAGIWVLSFLLATPVLAYRTVVPWKTNMSLCFPRYPSEGHRAFHLIFEAVTGFLLPFLAVVASYSDIGRRLQARRFRRSRRTGRLVVLIILTFAAFWLPYHVVNLAEAGRALAGQAAGLGLVGKRLSLARNVLIALAFLSSSVNPVLYACAGGGLLRSAGVGFVAKLLEGTGSEASSTRRGGSLGQTARSGPAALEPGPSESLTASSPLKLNELN [LTB4R],4810 ± 820
7,MPFPNCSAPSTVVATAVGVLLGLECGLGLLGNAVALWTFLFRVRVWKPYAVYLLNLALADLLLAACLPFLAAFYLSLQAWHLGRVGCWALHFLLDLSRSVGMAFLAAVALDRYLRVVHPRLKVNLLSPQAALGVSGLVWLLMVALTCPGLLISEAAQNSTRCHSFYSRADGSFSIIWQEALSCLQFVLPFGLIVFCNAGIIRALQKRLREPEKQPKLQRAQALVTLVVVLFALCFLPCFLARVLMHIFQNLGSCRALCAVAHTSDVTGSLTYLHSVLNPVVYCFSSPTFRSSYRRVFHTLRGKGQAAEPPDFNPRDSYS [GPR31],268 ± 21
8,MPGHNTSRNSSCDPIVTPHLISLYFIVLIGGLVGVISILFLLVKMNTRSVTTMAVINLVVVHSVFLLTVPFRLTYLIKKTWMFGLPFCKFVSAMLHIHMYLTFLFYVVILVTRYLIFFKCKDKVEFYRKLHAVAASAGMWTLVIVIVVPLVVSRYGIHEEYNEEHCFKFHKELAYTYVKIINYMIVIFVIAVAVILLVFQVFIIMLMVQKLRHSLLSHQEFWAQLKNLFFIGVILVCFLPYQFFRIYYLNVVTHSNACNSKVAFYNEIFLSVTAISCYDLLLFVFGGSHWFKQKIIGLWNCVLCR [GPR141],6452 ± 35
9,MPSVSPAGPSAGAVPNATAVTTVRTNASGLEVPLFHLFARLDEELHGTFPGLWLALMAVHGAIFLAGLVLNGLALYVFCCRTRAKTPSVIYTINLVVTDLLVGLSLPTRFAVYYGARGCLRCAFPHVLGYFLNMHCSILFLTCICVDRYLAIVRPEGSRRCRQPACARAVCAFVWLAAGAVTLSVLGVTGSRPCCRVFALTVLEFLLPLLVISVFTGRIMCALSRPGLLHQGRQRRVRAMQLLLTVLIIFLVCFTPFHARQVAVALWPDMPHHTSLVVYHVAVTLSSLNSCMDPIVYCFVTSGFQATVRGLFGQHGEREPSSGDVVSMHRSSKGSGRHHILSAGPHALTQALANGPEA [GPR20],3750 ± 220
10,MQAAGHPEPLDSRGSFSLPTMGANVSQDNGTGHNATFSEPLPFLYVLLPAVYSGICAVGLTGNTAVILVILRAPKMKTVTNVFILNLAVADGLFTLVLPVNIAEHLLQYWPFGELLCKLVLAVDHYNIFSSIYFLAVMSVDRYLVVLATVRSRHMPWRTYRGAKVASLCVWLGVTVLVLPFFSFAGVYSNELQVPSCGLSFPWPEQVWFKASRVYTLVLGFVLPVCTICVLYTDLLRRLRAVRLRSGAKALGKARRKVTVLVLVVLAVCLLCWTPFHLASVVALTTDLPQTPLVISMSYVITSLSYANSCLNPFLYAFLDDNFRKNFRSILRC [NPBWR2],444 ± 29
11,MQAVDNLTSAPGNTSLCTRDYKITQVLFPLLYTVLFFVGLITNGLAMRIFFQIRSKSNFIIFLKNTVISDLLMILTFPFKILSDAKLGTGPLRTFVCQVTSVIFYFTMYISISFLGLITIDRYQKTTRPFKTSNPKNLLGAKILSVVIWAFMFLLSLPNMILTNRQPRDKNVKKCSFLKSEFGLVWHEIVNYICQVIFWINFLIVIVCYTLITKELYRSYVRTRGVGKVPRKKVNVKVFIIIAVFFICFVPFHFARIPYTLSQTRDVFDCTAENTLFYVKESTLWLTSLNACLDPFIYFFLCKSFRNSLISMLKCPNSATSLSQDNRKKEQDGGDPNEETPM [P2RY12],6070 ± 87
12,MSAPSTLPPGGEEGLGTAWPSAANASSAPAEAEEAVAGPGDARAAGMVAIQCIYALVCLVGLVGNALVIFVILRYAKMKTATNIYLLNLAVADELFMLSVPFVASSAALRHWPFGSVLCRAVLSVDGLNMFTSVFCLTVLSVDRYVAVVHPLRAATYRRPSVAKLINLGVWLASLLVTLPIAIFADTRPARGGQAVACNLQWPHPAWSAVFVVYTFLLGFLLPVLAIGLCYLLIVGKMRAVALRAGWQQRRRSEKKITRLVLMVVVVFVLCWMPFYVVQLLNLFVTSLDATVNHVSLILSYANSCANPILYGFLSDNFRRFFQRVLCLRCCLLEGAGGAEEEPLDYYATALKSKGGAGCMCPPLPCQQEALQPEPGRKRIPLTRTTTF [SSTR4],5790 ± 75

# Same assay, conditions: GPCR class: B
row,Sequence,plasma membrane surface immunostaining intensity
1,MQPSPPPTELVPSERAVVLLSCALSALGSGLLVATHALWPDLRSRARRLLLFLSLADLLSAASYFYGVLQNFAGPSWDCVLQGALSTFANTSSFFWTVAIALYLYLSIVRAARGPRTDRLLWAFHVVSWGVPLVITVAAVALKKIGYDASDVSVGWCWIDLEAKDHVLWMLLTGKLWEMLAYVLLPLLYLLVRKHINRAHTALSEYRPILSQEHRLLRHSSMADKKLVLIPLIFIGLRVWSTVRFVLTLCGSPAVQTPVLVVLHGIGNTFQGGANCIMFVLCTRAVRTRLFSLCCCCCSSQPPTKSPAGTPKAPAPSKPGESQESQGTPGELPST [GPR157],2320 ± 310
2,MRPHLSPPLQQLLLPVLLACAAHSTGALPRLCDVLQVLWEEQDQCLQELSREQTGDLGTEQPVPGCEGMWDNISCWPSSVPGRMVEVECPRFLRMLTSRNGSLFRNCTQDGWSETFPRPNLACGVNVNDSSNEKRHSYLLKLKVMYTVGYSSSLVMLLVALGILCAFRRLHCTRNYIHMHLFVSFILRALSNFIKDAVLFSSDDVTYCDAHRAGCKLVMVLFQYCIMANYSWLLVEGLYLHTLLAISFFSERKYLQGFVAFGWGSPAIFVALWAIARHFLEDVGCWDINANASIWWIIRGPVILSILINFILFINILRILMRKLRTQETRGNEVSHYKRLARSTLLLIPLFGIHYIVFAFSPEDAMEIQLFFELALGSFQGLVVAVLYCFLNGEVQLEVQKKWQQWHLREFPLHPVASFSNSTKASHLEQSQGTCRTSII [SCTR],2410 ± 500

# Same assay, conditions: GPCR class: C
row,Sequence,plasma membrane surface immunostaining intensity
1,MPGKRGLGWWWARLPLCLLLSLYGPWMPSSLGKPKGHPHMNSIRIDGDITLGGLFPVHGRGSEGKPCGELKKEKGIHRLEAMLFALDRINNDPDLLPNITLGARILDTCSRDTHALEQSLTFVQALIEKDGTEVRCGSGGPPIITKPERVVGVIGASGSSVSIMVANILRLFKIPQISYASTAPDLSDNSRYDFFSRVVPSDTYQAQAMVDIVRALKWNYVSTVASEGSYGESGVEAFIQKSREDGGVCIAQSVKIPREPKAGEFDKIIRRLLETSNARAVIIFANEDDIRRVLEAARRANQTGHFFWMGSDSWGSKIAPVLHLEEVAEGAVTILPKRMSVRGFDRYFSSRTLDNNRRNIWFAEFWEDNFHCKLSRHALKKGSHVKKCTNRERIGQDSAYEQEGKVQFVIDAVYAMGHALHAMHRDLCPGRVGLCPRMDPVDGTQLLKYIRNVNFSGIAGNPVTFNENGDAPGRYDIYQYQLRNDSAEYKVIGSWTDHLHLRIERMHWPGSGQQLPRSICSLPCQPGERKKTVKGMPCCWHCEPCTGYQYQVDRYTCKTCPYDMRPTENRTGCRPIPIIKLEWGSPWAVLPLFLAVVGIAATLFVVITFVRYNDTPIVKASGRELSYVLLAGIFLCYATTFLMIAEPDLGTCSLRRIFLGLGMSISYAALLTKTNRIYRIFEQGKRSVSAPRFISPASQLAITFSLISLQLLGICVWFVVDPSHSVVDFQDQRTLDPRFARGVLKCDISDLSLICLLGYSMLLMVTCTVYAIKTRGVPETFNEAKPIGFTMYTTCIVWLAFIPIFFGTSQSADKLYIQTTTLTVSVSLSASVSLGMLYMPKVYIILFHPEQNVPKRKRSLKAVVTAATMSNKFTQKGNFRPNGEAKSELCENLEAPALATKQTYVTYTNHAI [GRM4],6340 ± 76
